# Results as given in PubChem BioAssay AID492948 (National Center for Advancing Translational Sciences (NCATS), 2010).
# The inconclusive results got no clear call from the source; some entries with a clear call stand among them for comparison. No potency is given beside an inconclusive call; the fits are too rough. The source made the active and inactive calls. The call rests on the fitted dose curve; in most records, active means well fitted activation curve with a large enough effect; inconclusive means small, poorly fitted or top-dose-only effect; inactive means no such curve, though single readings can be large or run the other way.
# Test: qHTS Assay for Agonists of the Relaxin Receptor RXFP1: V1B Hit Validation;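 further: counter-screen in HEK293 cells expressing V1B rather than RXFP1 for selectivity; nearly all actives have a fitted effect of over 65% in size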;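 on activation: cAMP accumulation with PDE4 inhibitor Ro 20-1724 present during compound exposure; 0% = buffer alone basal and 100% = 29 nM porcine relaxin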
# Details: HEK293 V1B cells, cAMP TR-FRET, 30 min; series mostly up to 115 µM; activation: at the top concentration
# In short: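 cAMP accumulation, read by TR-FRET competition after lysis, in V1B-expressing HEK293 cells given compound for 30 min at 37C with Ro 20174 present. Responses scaled between buffer basal and 29 nM porcine relaxin; Hill-equation EC50.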
# Potency means the concentration at half of the fitted maximal effect; tags describe the fitted curve by direction and shape.
Compound,Potency,activation
COc1ccc(CN2C(=O)c3cccnc3C2=O)cc1S(=O)(=O)NCc1ccc(C)o1,"inconclusive [activator, partial curve]",
COc1ccc(NC(=O)CSc2nc(-c3ccc(C)cc3)cc(C(F)(F)F)c2C#N)cc1,"inconclusive [activator, partial curve]",
COc1ccc(CN2C(=O)c3cccnc3C2=O)cc1S(=O)(=O)NC1CCCCC1,active: 34.6 µM,
CC(NC(=O)c1ccccc1NC(=O)c1ccco1)C(=O)O (stereo not drawn),,inactive: 2.15% [at 127 µM]
CCNc1nc(NCC)nc(N(C)/N=C/c2ccco2)n1,,inactive: 2.96%
CC1CCCCN1C(=O)c1ccccc1NC(=O)c1ccco1 (stereo not drawn),,inactive: 4.49% [at 127 µM]
C=CCSc1nc2c(c(=O)[nH]1)C(C(C)C)C(C#N)=C(N)O2 (stereo not drawn),"inconclusive [activator, single point]",
O=C(CCc1nnc2ccc(N3CCC4(CC3)OCCO4)nn12)NCc1ccccc1Cl,"inconclusive [activator, partial curve]",
O=C(O)CCNc1ccc(NCCC(=O)O)c2c1C(=O)c1ccccc1C2=O,,inactive: 1.09%
COc1ccc(-n2ncc3c(N4CCC(C(N)=O)CC4)ncnc32)cc1,"inconclusive [activator, partial curve]",
O=C1CN(c2nc3ccccc3n3cnnc23)CC(=O)N1CCc1ccccc1,"inconclusive [activator, partial curve, poor fit]",
Cc1cc(C)c(NC(=O)CS(=O)CC(=O)Nc2ccc(F)cc2F)c(C)c1 (stereo not drawn),,inactive: 3.65%
O=C(Nc1ccccc1C(=O)N1CCN(c2ccccc2)CC1)c1ccco1,,inactive: -5.2% [at 127 µM]
N#C/C(=C\c1c(N2CCC(C(N)=O)CC2)nc2ccccn2c1=O)C(=O)NC1CCCCC1,"inconclusive [activator, partial curve]",
CC(C)OCCCn1c(=O)c2ccccc2n2c(CCC(=O)NCc3ccccn3)nnc12,"inconclusive [activator, partial curve]",
CC(NC(=O)c1ccccc1NC(=O)c1ccco1)c1ccccc1 (stereo not drawn),"inconclusive [activator, partial curve]",
CC1(C)O[C@@H]2[C@H](O1)[C@@H](COS(=O)(=O)O)O[C@H]2n1cnc2c(N)ncnc21,active: 3.88 µM,
Cn1c(=O)c2c(nc(CN3CCN(C(=O)c4ccco4)CC3)n2CCCO)n(C)c1=O,"inconclusive [activator, partial curve]",
O=C(O)CCC(=O)N1CCN(c2nc(-c3ccccc3Cl)c3cc(Br)ccc3n2)CC1,"inconclusive [activator, partial curve]",

Compound,Potency,activation
O=C(CN1C(=O)c2cccc3cccc(c23)C1=O)NCCN1CCOCC1,"inconclusive [activator, partial curve]",
Nc1c(S(=O)(=O)O)cc(NC(=O)c2ccccc2)c2c1C(=O)c1ccccc1C2=O,,inactive: -16.6%
Cc1cc(C(=O)COC(=O)Cn2cnc3c2c(=O)n(C)c(=O)n3C)c(C)n1C,active: 13.8 µM,
Cc1cc(C)c(C(=O)CSc2n[nH]c(=O)n2C2CC2)cc1C,,inactive: -2.45%
COc1ccc(/C=C2/SC(=O)N(CC(=O)Nc3cc(C)on3)C2=O)cc1OC,,inactive: -72.1%
O=C(O)c1ccc(N=C2NC(=O)C(CO)(CO)S2)cc1,,inactive: 5.93% [at 44.9 µM]
O=C(CCc1nnc2ccc(N3CCC4(CC3)OCCO4)nn12)NCc1ccc(F)cc1,active: 38.9 µM,
CCOc1ccccc1C(=O)Nc1ccc(S(=O)(=O)Nc2cc(OC)nc(OC)n2)cc1,"inconclusive [activator, partial curve]",
COC(=O)C(C)Sc1ccc2nnc(-c3ccccc3)n2n1 (stereo not drawn),"inconclusive [activator, partial curve]",
CN(CC(=O)Nc1ccccc1Cl)C(=O)COC(=O)Cc1c(F)cccc1Cl,,inactive: 3.14% [at 44.9 µM]
O=C(NCCOC(=O)c1ccc([N+](=O)[O-])cc1)c1cccnc1,"inconclusive [activator, partial curve]",
COc1ccc(S(=O)(=O)N2CCOCC2)cc1NC(=O)CSc1ncnc2ccccc12,active: 13.8 µM,
COc1cc(Cl)c(C)cc1NC(=O)c1ccc2c(c1)OCO2,"inconclusive [activator, single point]",
CCOc1ccc2cc(C#N)c(SCC(=O)NC(C)CC)nc2c1 (stereo not drawn),active: 5.48 µM,
COCCNC(=O)C(OC(=O)c1nsc(Cl)c1Cl)C(C)C (stereo not drawn),"inconclusive [activator, partial curve]",
Cc1ccc2[nH]c3c(=S)nc[nH]c3c2c1,active: 6.15 µM,
COc1cccc(CNC(=O)c2ccc(CS(=O)Cc3ccc(C)cc3)o2)c1 (stereo not drawn),,inactive: 1.42% [at 44.9 µM]
Cn1c(=O)c2c(ncn2CC(=O)NC2CCCCC2)n(C)c1=O,"inconclusive [activator, partial curve]",
Cc1ccc(-n2nnc3c(=O)n(CC(=O)NCC4CCCO4)cnc32)cc1 (stereo not drawn),active: 24.5 µM,
